Measurements reported in PubChem BioAssay AID504332 (National Center for Advancing Translational Sciences (NCATS), 2011).
Values joined by “and” are separate entries in the source; they are usually repeats but may differ in a detail not shown here. Identical values can stand only once. The campaign covered roughly 350,000 compounds. About 31,000 (8.9%) were called active. This list was built around the results that the source calls inconclusive (neither active nor inactive); the mix of calls is not that of the screen. Calls come from the whole dose curve; as a rule, active = well fitted inhibition curve with a large enough effect; inconclusive = small, poorly fitted or top-dose-only effect; inactive = no such curve, though single readings can be large or run the other way. A potency beside an inconclusive call is a rough fit, not a confirmed value.
% is set by controls: 0 for no effect and ±100 for the full control effect; potency is the fitted concentration of half-maximal effect; tags give direction and shape of the fitted curve.
Note: nearly all actives have a fitted effect of over 75% in size.

Each compound was assayed against Histone-lysine N-methyltransferase EHMT2 (Homo sapiens) (UniProt Q96KQ7) (assay: qHTS Assay for Inhibitors of Histone Lysine Methyltransferase G9a). Conditions: G9a H3K9 monomethylation, AlphaScreen, 2 h; activity, negative = inhibition: at 59 µM (top of the series) unless noted.
Sequence of UniProt Q96KQ7 (Q96KQ7 whole entry, looked up): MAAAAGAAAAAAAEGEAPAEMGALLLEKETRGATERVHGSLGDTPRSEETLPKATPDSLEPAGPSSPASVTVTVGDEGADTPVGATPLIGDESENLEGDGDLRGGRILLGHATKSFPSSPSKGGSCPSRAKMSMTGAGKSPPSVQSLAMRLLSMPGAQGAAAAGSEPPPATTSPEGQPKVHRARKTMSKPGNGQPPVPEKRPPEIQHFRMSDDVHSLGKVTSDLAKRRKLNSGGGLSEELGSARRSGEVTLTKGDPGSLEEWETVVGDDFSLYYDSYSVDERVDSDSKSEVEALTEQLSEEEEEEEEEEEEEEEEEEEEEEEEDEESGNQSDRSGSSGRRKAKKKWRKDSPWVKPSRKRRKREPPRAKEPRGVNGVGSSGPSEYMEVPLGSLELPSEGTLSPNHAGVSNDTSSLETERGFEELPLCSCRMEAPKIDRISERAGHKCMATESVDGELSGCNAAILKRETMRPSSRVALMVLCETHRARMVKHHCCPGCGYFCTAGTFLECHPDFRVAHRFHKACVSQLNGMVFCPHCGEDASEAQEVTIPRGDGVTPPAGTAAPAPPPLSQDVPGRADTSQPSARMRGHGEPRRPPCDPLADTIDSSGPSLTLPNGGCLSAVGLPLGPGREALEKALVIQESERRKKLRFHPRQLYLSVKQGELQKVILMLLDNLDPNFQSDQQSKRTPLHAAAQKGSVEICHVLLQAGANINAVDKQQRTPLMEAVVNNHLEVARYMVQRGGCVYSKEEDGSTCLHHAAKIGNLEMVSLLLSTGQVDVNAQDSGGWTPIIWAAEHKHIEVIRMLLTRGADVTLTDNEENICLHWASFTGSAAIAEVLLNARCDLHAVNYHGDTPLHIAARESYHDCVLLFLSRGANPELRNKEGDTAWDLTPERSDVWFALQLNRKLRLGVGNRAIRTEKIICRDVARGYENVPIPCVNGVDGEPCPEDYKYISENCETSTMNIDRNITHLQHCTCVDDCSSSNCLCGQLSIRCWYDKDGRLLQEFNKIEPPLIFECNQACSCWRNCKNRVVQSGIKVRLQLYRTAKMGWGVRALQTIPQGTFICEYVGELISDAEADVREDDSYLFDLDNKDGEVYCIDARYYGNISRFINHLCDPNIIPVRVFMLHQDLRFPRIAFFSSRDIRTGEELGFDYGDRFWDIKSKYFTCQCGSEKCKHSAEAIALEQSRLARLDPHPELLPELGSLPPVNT
Outline: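 AlphaScreen read-out: biotin-H3K9 peptide (500 nM) methylation by 20 nM enzyme with 20 uM SAM, 2 h at room temperature after 15 min compound preincubation; anti-monomethyl H3K9 antibody plus donor/acceptor beads, 10 min dark.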
In the case of `COc1cc2c(OC(C)=O)c3c(c(-c4ccc5c(c4)OCO5)c2cc1OC)C(=O)OC3`, the “activity, negative = inhibition” value is reported as inactive: -9.53%.
`CCOc1ccc(C(C)(N)C(=O)O)cc1` (stereo not drawn) was tested, and the Potency was inconclusive: 1.26 µM [inhibitor, single point].
In the case of `CCN(Cc1ccccc1)C(=O)CCS(=O)(=O)c1ccc2c(c1)n(C)c(=O)c(=O)n2C`, the “activity, negative = inhibition” value is reported as inactive: 12.5%.
With `O=S(=O)(c1ccc(NC(=S)N2CCN(c3ccc(O)cc3)CC2)cc1)N1CCOCC1` the Potency was active: 20 µM.
With `COc1cc(OC)c(NC(=O)CN2C(=O)CCn3nc(-c4cccn4C)cc32)cc1Cl` the Potency was inconclusive: 25.1 µM [inhibitor, single point].
For `CCn1c(N)c(C(=O)NCc2ccco2)sc1=S`, the Potency was active: 10 µM.
`Fc1ccc(C2c3[nH]c4ccccc4c3CCN2CCCn2cccn2)cc1` (stereo not drawn) was tested, and the “activity, negative = inhibition” value was inactive: 4.78%.
For `CCN(CC)CCOc1ccc2c(c1)C(=O)c1cc(OCCN(CC)CC)ccc1-2`, the activity, negative = inhibition was inactive: -43.5% [at 2.33 µM].
For `COc1ccccc1-c1nccc(NC2CCNCC2)n1`, the activity, negative = inhibition was inactive: -40.2% [at 0.501 µM].
In the case of `O=[N+]([O-])c1c(NCCCO)cc(N2CCCCCC2)c2nonc12`, the Potency is reported as inconclusive: 89.1 µM [inhibitor, single point].
With `CN(C(=O)C1CCCN(c2ncnc3c2nc2n3CCCCC2)C1)c1ccccc1F` (stereo not drawn) the “activity, negative = inhibition” value was inactive: -17.1%.
For `Cc1nn(-c2ccccc2)c(Cl)c1C(=O)NCCN(C)C`, the Potency was inconclusive: 44.7 µM [inhibitor, partial curve, poor fit].
In the case of `O=C(c1ccco1)N1CCN(Cc2ccccc2F)CC1`, the Potency is reported as active: 28.2 µM.
`Cc1cccc(NC(=O)CS(=O)(=O)c2cn(C)c3ccccc23)c1C` was tested, and the Potency was inconclusive: 3.55 µM [inhibitor, full curve].
With `CCOC(=O)C1C(c2ccc(C)o2)NC(=O)NC1(O)C(F)(F)F` (stereo not drawn) the Potency was inconclusive: 70.8 µM [inhibitor, single point].
`CCCn1c(SCC(=O)Nc2cc(S(=O)(=O)N(C)C)ccc2OC)n[nH]c1=O` was tested, and the “activity, negative = inhibition” value was inactive: 16.6% [at 102 µM].
For `COc1ccc(CN(C)C(=O)c2ccc(NS(=O)(=O)c3ccc(C)c([N+](=O)[O-])c3)cc2)c(OC)c1OC`, the Potency was inconclusive: 56.2 µM [inhibitor, partial curve, poor fit].
In the case of `Cc1ccc2c(c1)C1CN(C)CCC1N2C(=S)Nc1ccc(Cl)cc1Cl` (stereo not drawn), the Potency is reported as inconclusive: 50.1 µM [inhibitor, partial curve].
`Cc1ccc(C(=O)N2CCC(C)CC2)cc1C` was tested, and the Potency was inconclusive: 22.4 µM [inhibitor, single point].
With `CC(NC(=O)c1ccco1)C(=O)Nc1nc(-c2ccccn2)cs1` (stereo not drawn) the Potency was inconclusive: 0.562 µM [inhibitor, full curve, poor fit].
In the case of `O=C(NC1CCCCC1)c1cc2c(cc1Cl)N1CCCCCC1=NS2(=O)=O`, the Potency is reported as active: 50.1 µM.
`CCOC(=O)C1=C(C)N(CCCC(=O)O)C(=O)NC1c1ccc(OC)cc1` (stereo not drawn) was tested, and the Potency was inconclusive: 89.1 µM [inhibitor, single point].
For `Cc1cccnc1NC(=O)CCNS(=O)(=O)c1ccc2c(c1)c(=O)n(C)c(=O)n2C`, the Potency was inconclusive: 56.2 µM [inhibitor, partial curve, poor fit].
With `COc1cc2c(cc1OC)CN(CC(=O)NC(=O)NC(C)(C)C)CC2` the Potency was inconclusive: 50.1 µM [inhibitor, partial curve, poor fit].
With `CC1NC(=O)c2ccccc2-n2c1nc1cc(F)ccc1c2=O` (stereo not drawn) the activity, negative = inhibition was inactive: 14.3% [at 0.501 µM].
`COc1cccc(-c2nc3c(c(SCc4ccccc4)n2)Cc2c(CO)cnc(C)c2O3)c1` was tested, and the Potency was inconclusive: 20 µM [inhibitor, partial curve, poor fit].
For `CCN(CC)CCn1c(SCC(=O)NCc2ccco2)nc2c(sc3ccccc32)c1=O`, the Potency was inconclusive: 56.2 µM [inhibitor, partial curve, poor fit].
In the case of `CC1=Nc2ccc(C)cc2/C1=C/c1c(N)n2nc(CC(=O)N3CCOCC3)sc2nc1=O`, the Potency is reported as inconclusive: 0.891 µM [inhibitor, full curve, poor fit].
In the case of `Cc1ccc2ccc(C(Nc3ccccn3)c3ccccc3)c(O)c2n1` (stereo not drawn), the Potency is reported as active: 39.8 µM and active: 14.1 µM.
`CN1CCC2(CC1)C1CN(C)CC=C1C(C#N)=C(N)C2(C#N)C#N` (stereo not drawn) was tested, and the Potency was inconclusive: 56.2 µM [inhibitor, partial curve, poor fit].
`C=CCN=c1sc(C(=O)OC)cc(=O)n1CC=C` was tested, and the “activity, negative = inhibition” value was inactive: 23.4% [at 102 µM].
With `COCCn1c(C)cc(C(=O)COC(=O)C23CC4CC(CC(O)(C4)C2)C3)c1C` the Potency was inconclusive: 89.1 µM [inhibitor, single point].
For `CCNc1nc2c(c(=O)[nH]c(=O)n2C)n1Cc1ccc(F)cc1`, the Potency was inconclusive: 0.708 µM [inhibitor, partial curve, poor fit].
`COc1ccc(OC)c(NC(=O)COC(=O)/C=C/c2ccccc2Cl)c1` was tested, and the Potency was inconclusive: 15.8 µM [inhibitor, single point].
`CCOc1ccc(N(CC(=O)NC2CCCCC2)C(=O)CSc2nnc(COc3ccccc3)o2)cc1` was tested, and the Potency was inconclusive: 39.8 µM [inhibitor, single point].
For `N#C/C(=C\c1ccc(N2CCOCC2)o1)c1ccccc1`, the Potency was inconclusive: 0.631 µM [inhibitor, full curve, poor fit].
`COc1cc(CNC2CCCC2)c(Br)cc1OC1CCCC1` was tested, and the “activity, negative = inhibition” value was inactive: -33% [at 102 µM].
With `O=C(Nn1c(O)c(C=C2N=c3ccccc3=N2)sc1=S)c1ccccc1Cl` the Potency was inconclusive: 1.41 µM [inhibitor, full curve, poor fit].
For `Cc1cc(N2CCOCC2)nc2ccc(NC(=S)N3CCCCC3C)cc12` (stereo not drawn), the Potency was active: 44.7 µM.
In the case of `COC(=O)CN1C(=O)CSc2ccc(S(=O)(=O)Nc3ccc(Cl)cc3C)cc21`, the Potency is reported as inconclusive: 5.62 µM [inhibitor, single point].
For `COc1ccc(C(=O)COC(=O)CCCN=C2NS(=O)(=O)c3ccccc32)c(OC)c1`, the Potency was inconclusive: 15.8 µM [inhibitor, partial curve, poor fit].
In the case of `CCCOc1ccccc1C(=O)N1CCC(c2nc3ccccc3s2)CC1`, the “activity, negative = inhibition” value is reported as inactive: -25.4%.
In the case of `O=C(Nc1nnc(-c2ccccc2F)s1)Nc1ccccc1F`, the “activity, negative = inhibition” value is reported as inactive: 28% [at 102 µM].
